Laboratory results taken from the supplement of paper PMC7125110.
± gives the standard error. For some of these results: Variants at the floor of the assay are shown more often than the library holds them.

B1: glmS ribozyme (parent)
chain: AUAAAAGCGCCAGAACUACAGAAAUGUAGUUGACGAGGAGGAGGUUUAUCGAAUUUUCGGCGGAUGCCUCCAAA

What was measured:
Settings in all cases: with glucosamine-6-phosphate
glucosamine-6-phosphate [1] = variants of: B1; test: self-cleavage kobs at 160 uM GlcN6P; higher = faster cleavage; RNA array
Procedure, shortened: (§1)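 E. coli RNA polymerase transcribed barcoded ribozyme variants in situ on sequenced MiSeq chips, which were tracked via a hybridised Cy3 probe at 37 °C. Tiles were imaged over ~14 h after glucosamine-6-phosphate (40 μM to 10 mM) in HEPES/KCl/Mg(OAc)2 buffer was flowed in. Normalised per-tile medians were fit to one- or two-exponential decays for kobs, and kcat and KM came from weighted Michaelis–Menten fits.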

glucosamine-6-phosphate [2] = variants of: B1; test: self-cleavage kobs at 2500 uM GlcN6P; higher = faster cleavage; RNA array
Procedure, shortened: as §1

glucosamine-6-phosphate [3] = variants of: B1; test: self-cleavage kobs at 10000 uM GlcN6P; higher = faster cleavage; RNA array
Procedure, shortened: as §1

glucosamine-6-phosphate [4] = variants of: B1; test: self-cleavage kobs at 640 uM GlcN6P; higher = faster cleavage; RNA array
Procedure, shortened: as §1

Variant: A15U G32U G43U U56G C58A G59C
- self-cleavage kobs at 160 uM GlcN6P (glucosamine-6-phosphate [1]): < 1e-05 s⁻¹
- self-cleavage kobs at 2500 uM GlcN6P (glucosamine-6-phosphate [2]): < 1e-05 s⁻¹

Variant: G9A A36G C67A
- self-cleavage kobs at 160 uM GlcN6P (glucosamine-6-phosphate [1]): < 1e-05 s⁻¹

Variant: A6G G29A U69A
- self-cleavage kobs at 160 uM GlcN6P (glucosamine-6-phosphate [1]): < 1e-05 s⁻¹
- self-cleavage kobs at 2500 uM GlcN6P (glucosamine-6-phosphate [2]): < 1e-05 s⁻¹
- self-cleavage kobs at 10000 uM GlcN6P (glucosamine-6-phosphate [3]): < 1e-05 s⁻¹

Variant: G9U G51A A53G C61U
- self-cleavage kobs at 160 uM GlcN6P (glucosamine-6-phosphate [1]): < 1e-05 s⁻¹

Variant: U31A C58A U65C
- self-cleavage kobs at 160 uM GlcN6P (glucosamine-6-phosphate [1]): < 1e-05 s⁻¹

Variant: A6U U49A G62A
- self-cleavage kobs at 160 uM GlcN6P (glucosamine-6-phosphate [1]): < 1e-05 s⁻¹
- self-cleavage kobs at 2500 uM GlcN6P (glucosamine-6-phosphate [2]): < 1e-05 s⁻¹

Variant: G7U G66A
- self-cleavage kobs at 160 uM GlcN6P (glucosamine-6-phosphate [1]): < 1e-05 s⁻¹
- self-cleavage kobs at 10000 uM GlcN6P (glucosamine-6-phosphate [3]): < 1e-05 s⁻¹

Variant: C16U G43U G60C
- self-cleavage kobs at 160 uM GlcN6P (glucosamine-6-phosphate [1]): < 1e-05 s⁻¹
- self-cleavage kobs at 2500 uM GlcN6P (glucosamine-6-phosphate [2]): < 1e-05 s⁻¹

Variant: U31A U49A G60A
- self-cleavage kobs at 160 uM GlcN6P (glucosamine-6-phosphate [1]): < 1e-05 s⁻¹
- self-cleavage kobs at 2500 uM GlcN6P (glucosamine-6-phosphate [2]): < 1e-05 s⁻¹

Variant: G32C U47G G62U
- self-cleavage kobs at 160 uM GlcN6P (glucosamine-6-phosphate [1]): < 1e-05 s⁻¹

Variant: G63A G66C
- self-cleavage kobs at 640 uM GlcN6P (glucosamine-6-phosphate [4]): < 1e-05 s⁻¹
- self-cleavage kobs at 160 uM GlcN6P (glucosamine-6-phosphate [1]): < 1e-05 s⁻¹
- self-cleavage kobs at 2500 uM GlcN6P (glucosamine-6-phosphate [2]): < 1e-05 s⁻¹
- self-cleavage kobs at 10000 uM GlcN6P (glucosamine-6-phosphate [3]): < 1e-05 s⁻¹

Variant: A12G U31C G35A C50G A52U C68A
- self-cleavage kobs at 160 uM GlcN6P (glucosamine-6-phosphate [1]): < 1e-05 s⁻¹
- self-cleavage kobs at 2500 uM GlcN6P (glucosamine-6-phosphate [2]): < 1e-05 s⁻¹

Variant: G63A G66U C67U
- self-cleavage kobs at 640 uM GlcN6P (glucosamine-6-phosphate [4]): < 1e-05 s⁻¹
- self-cleavage kobs at 2500 uM GlcN6P (glucosamine-6-phosphate [2]): < 1e-05 s⁻¹

Variant: G9A A12C U31A U55G
- self-cleavage kobs at 160 uM GlcN6P (glucosamine-6-phosphate [1]): < 1e-05 s⁻¹

Variant: G9C U30A G35U G51C
- self-cleavage kobs at 160 uM GlcN6P (glucosamine-6-phosphate [1]): < 1e-05 s⁻¹
- self-cleavage kobs at 2500 uM GlcN6P (glucosamine-6-phosphate [2]): < 1e-05 s⁻¹

Variant: G29A U65C
- self-cleavage kobs at 160 uM GlcN6P (glucosamine-6-phosphate [1]): < 1e-05 s⁻¹

Variant: A33C A48U A64U
- self-cleavage kobs at 160 uM GlcN6P (glucosamine-6-phosphate [1]): < 1e-05 s⁻¹

Variant: C8G G60A C61A
- self-cleavage kobs at 160 uM GlcN6P (glucosamine-6-phosphate [1]): < 1e-05 s⁻¹
- self-cleavage kobs at 2500 uM GlcN6P (glucosamine-6-phosphate [2]): < 1e-05 s⁻¹
- self-cleavage kobs at 10000 uM GlcN6P (glucosamine-6-phosphate [3]): < 1e-05 s⁻¹

Variant: G7C C8U A15G G35A
- self-cleavage kobs at 160 uM GlcN6P (glucosamine-6-phosphate [1]): < 1e-05 s⁻¹
- self-cleavage kobs at 2500 uM GlcN6P (glucosamine-6-phosphate [2]): < 1e-05 s⁻¹

Variant: A6U U46C
- self-cleavage kobs at 160 uM GlcN6P (glucosamine-6-phosphate [1]): < 1e-05 s⁻¹

Variant: G29U U57G
- self-cleavage kobs at 160 uM GlcN6P (glucosamine-6-phosphate [1]): < 1e-05 s⁻¹

Variant: A12C A14U G44U U45A
- self-cleavage kobs at 160 uM GlcN6P (glucosamine-6-phosphate [1]): < 1e-05 s⁻¹

Variant: C16U U30C G35A G40U G44U
- self-cleavage kobs at 160 uM GlcN6P (glucosamine-6-phosphate [1]): < 1e-05 s⁻¹
- self-cleavage kobs at 2500 uM GlcN6P (glucosamine-6-phosphate [2]): < 1e-05 s⁻¹

Variant: C10A G35A A39G
- self-cleavage kobs at 160 uM GlcN6P (glucosamine-6-phosphate [1]): < 1e-05 s⁻¹
- self-cleavage kobs at 2500 uM GlcN6P (glucosamine-6-phosphate [2]): < 1e-05 s⁻¹

Variant: U31C A36U A42U
- self-cleavage kobs at 160 uM GlcN6P (glucosamine-6-phosphate [1]): < 1e-05 s⁻¹

Variant: C8U U46A
- self-cleavage kobs at 160 uM GlcN6P (glucosamine-6-phosphate [1]): < 1e-05 s⁻¹
- self-cleavage kobs at 2500 uM GlcN6P (glucosamine-6-phosphate [2]): < 1e-05 s⁻¹
- self-cleavage kobs at 10000 uM GlcN6P (glucosamine-6-phosphate [3]): < 1e-05 s⁻¹

Variant: U30C G43U
- self-cleavage kobs at 160 uM GlcN6P (glucosamine-6-phosphate [1]): < 1e-05 s⁻¹
- self-cleavage kobs at 2500 uM GlcN6P (glucosamine-6-phosphate [2]): < 1e-05 s⁻¹
- self-cleavage kobs at 10000 uM GlcN6P (glucosamine-6-phosphate [3]): < 1e-05 s⁻¹

Variant: A15C U31C G38A
- self-cleavage kobs at 160 uM GlcN6P (glucosamine-6-phosphate [1]): < 1e-05 s⁻¹

Variant: C10U U56C C67U
- self-cleavage kobs at 160 uM GlcN6P (glucosamine-6-phosphate [1]): < 1e-05 s⁻¹

Variant: U31G A53U C58U C71U
- self-cleavage kobs at 160 uM GlcN6P (glucosamine-6-phosphate [1]): < 1e-05 s⁻¹

Variant: A6U A48C U57G
- self-cleavage kobs at 160 uM GlcN6P (glucosamine-6-phosphate [1]): < 1e-05 s⁻¹

Variant: A12U G51A U55C
- self-cleavage kobs at 160 uM GlcN6P (glucosamine-6-phosphate [1]): < 1e-05 s⁻¹

Variant: A6G A14C A42G U49G
- self-cleavage kobs at 160 uM GlcN6P (glucosamine-6-phosphate [1]): < 1e-05 s⁻¹

Variant: C8A U46C
- self-cleavage kobs at 160 uM GlcN6P (glucosamine-6-phosphate [1]): < 1e-05 s⁻¹

Variant: C10G C34G G38A U47A
- self-cleavage kobs at 160 uM GlcN6P (glucosamine-6-phosphate [1]): < 1e-05 s⁻¹

Variant: G9U C10U U54G
- self-cleavage kobs at 160 uM GlcN6P (glucosamine-6-phosphate [1]): < 1e-05 s⁻¹

Variant: U31G G43A C71G
- self-cleavage kobs at 160 uM GlcN6P (glucosamine-6-phosphate [1]): < 1e-05 s⁻¹

Variant: G9A A33G G44U
- self-cleavage kobs at 160 uM GlcN6P (glucosamine-6-phosphate [1]): < 1e-05 s⁻¹
- self-cleavage kobs at 2500 uM GlcN6P (glucosamine-6-phosphate [2]): < 1e-05 s⁻¹

Variant: C11G A15G U65C
- self-cleavage kobs at 160 uM GlcN6P (glucosamine-6-phosphate [1]): < 1e-05 s⁻¹

Variant: G7A A15G U30C U45A
- self-cleavage kobs at 160 uM GlcN6P (glucosamine-6-phosphate [1]): < 1e-05 s⁻¹

Variant: A33C U47A U56G G60U C71G
- self-cleavage kobs at 160 uM GlcN6P (glucosamine-6-phosphate [1]): < 1e-05 s⁻¹

Variant: G13A U30G A42C
- self-cleavage kobs at 160 uM GlcN6P (glucosamine-6-phosphate [1]): < 1e-05 s⁻¹
- self-cleavage kobs at 2500 uM GlcN6P (glucosamine-6-phosphate [2]): < 1e-05 s⁻¹

Variant: U31C C61U C67G C70G
- self-cleavage kobs at 160 uM GlcN6P (glucosamine-6-phosphate [1]): < 1e-05 s⁻¹

Variant: C10G C34A C58A
- self-cleavage kobs at 160 uM GlcN6P (glucosamine-6-phosphate [1]): < 1e-05 s⁻¹

Variant: G29A C58U
- self-cleavage kobs at 160 uM GlcN6P (glucosamine-6-phosphate [1]): < 1e-05 s⁻¹

Variant: G9A U69G
- self-cleavage kobs at 160 uM GlcN6P (glucosamine-6-phosphate [1]): < 1e-05 s⁻¹

Variant: C8A U69A
- self-cleavage kobs at 160 uM GlcN6P (glucosamine-6-phosphate [1]): < 1e-05 s⁻¹

Variant: C8U G40A G51C
- self-cleavage kobs at 160 uM GlcN6P (glucosamine-6-phosphate [1]): < 1e-05 s⁻¹
- self-cleavage kobs at 2500 uM GlcN6P (glucosamine-6-phosphate [2]): < 1e-05 s⁻¹

Variant: A6G U69C
- self-cleavage kobs at 160 uM GlcN6P (glucosamine-6-phosphate [1]): < 1e-05 s⁻¹
- self-cleavage kobs at 10000 uM GlcN6P (glucosamine-6-phosphate [3]): 2.56e-05 ± 1e-05 s⁻¹

Variant: G7A C8A U49G
- self-cleavage kobs at 160 uM GlcN6P (glucosamine-6-phosphate [1]): < 1e-05 s⁻¹
- self-cleavage kobs at 2500 uM GlcN6P (glucosamine-6-phosphate [2]): < 1e-05 s⁻¹
- self-cleavage kobs at 10000 uM GlcN6P (glucosamine-6-phosphate [3]): < 1e-05 s⁻¹

Variant: A12G G35U
- self-cleavage kobs at 160 uM GlcN6P (glucosamine-6-phosphate [1]): < 1e-05 s⁻¹
- self-cleavage kobs at 2500 uM GlcN6P (glucosamine-6-phosphate [2]): < 1e-05 s⁻¹
- self-cleavage kobs at 10000 uM GlcN6P (glucosamine-6-phosphate [3]): < 1e-05 s⁻¹

Variant: A33G A48U A52U
- self-cleavage kobs at 160 uM GlcN6P (glucosamine-6-phosphate [1]): < 1e-05 s⁻¹

Variant: A14C G32U G38U
- self-cleavage kobs at 160 uM GlcN6P (glucosamine-6-phosphate [1]): < 1e-05 s⁻¹
- self-cleavage kobs at 2500 uM GlcN6P (glucosamine-6-phosphate [2]): < 1e-05 s⁻¹

Variant: A15C G43C U55G
- self-cleavage kobs at 160 uM GlcN6P (glucosamine-6-phosphate [1]): < 1e-05 s⁻¹

Variant: G29C U31C A39C
- self-cleavage kobs at 160 uM GlcN6P (glucosamine-6-phosphate [1]): < 1e-05 s⁻¹

Variant: A33G C50A G62U G66U
- self-cleavage kobs at 160 uM GlcN6P (glucosamine-6-phosphate [1]): < 1e-05 s⁻¹

Variant: A12G G37A
- self-cleavage kobs at 160 uM GlcN6P (glucosamine-6-phosphate [1]): < 1e-05 s⁻¹

Variant: G7A G38U G44C U49A A53U U56C
- self-cleavage kobs at 160 uM GlcN6P (glucosamine-6-phosphate [1]): < 1e-05 s⁻¹

Variant: A14G G60A G63A
- self-cleavage kobs at 160 uM GlcN6P (glucosamine-6-phosphate [1]): < 1e-05 s⁻¹
- self-cleavage kobs at 2500 uM GlcN6P (glucosamine-6-phosphate [2]): < 1e-05 s⁻¹

Variant: A14U A15G G37C A64G
- self-cleavage kobs at 160 uM GlcN6P (glucosamine-6-phosphate [1]): < 1e-05 s⁻¹

Variant: G9U U45A C67U
- self-cleavage kobs at 160 uM GlcN6P (glucosamine-6-phosphate [1]): < 1e-05 s⁻¹
- self-cleavage kobs at 2500 uM GlcN6P (glucosamine-6-phosphate [2]): < 1e-05 s⁻¹

Variant: A14C A39U U56A G63U
- self-cleavage kobs at 160 uM GlcN6P (glucosamine-6-phosphate [1]): < 1e-05 s⁻¹

Variant: U65A G66C
- self-cleavage kobs at 640 uM GlcN6P (glucosamine-6-phosphate [4]): 0.000156 ± 3.2e-05 s⁻¹
- self-cleavage kobs at 2500 uM GlcN6P (glucosamine-6-phosphate [2]): 0.000267 ± 8.2e-05 s⁻¹
- self-cleavage kobs at 10000 uM GlcN6P (glucosamine-6-phosphate [3]): 0.000436 ± 8.9e-05 s⁻¹

Variant: G9U U57A C58A
- self-cleavage kobs at 160 uM GlcN6P (glucosamine-6-phosphate [1]): < 1e-05 s⁻¹

Variant: C8A C67A
- self-cleavage kobs at 160 uM GlcN6P (glucosamine-6-phosphate [1]): < 1e-05 s⁻¹
- self-cleavage kobs at 2500 uM GlcN6P (glucosamine-6-phosphate [2]): < 1e-05 s⁻¹

Variant: U31A G35C U54A A64U
- self-cleavage kobs at 160 uM GlcN6P (glucosamine-6-phosphate [1]): < 1e-05 s⁻¹

Variant: U31G A33U G38U
- self-cleavage kobs at 160 uM GlcN6P (glucosamine-6-phosphate [1]): < 1e-05 s⁻¹
